The supplement of paper PMC3334620
In all, about 33,000 sequences were measured (“E-score (-0.5 to 0.5)”: median about -0.036, highest 2% from about 0.37 on). This is one part of the list.

The sequences below were run against T1, Yer064c (UniProt P40041) (assay: PBM E-score (8-mer binding enrichment) (E-score (-0.5 to 0.5)); higher = stronger / more preferred TF binding; most listed sequences are background and not binding sites). Conditions: protein concentration: 200 nM; construct: GST-full length.
T1 sequence: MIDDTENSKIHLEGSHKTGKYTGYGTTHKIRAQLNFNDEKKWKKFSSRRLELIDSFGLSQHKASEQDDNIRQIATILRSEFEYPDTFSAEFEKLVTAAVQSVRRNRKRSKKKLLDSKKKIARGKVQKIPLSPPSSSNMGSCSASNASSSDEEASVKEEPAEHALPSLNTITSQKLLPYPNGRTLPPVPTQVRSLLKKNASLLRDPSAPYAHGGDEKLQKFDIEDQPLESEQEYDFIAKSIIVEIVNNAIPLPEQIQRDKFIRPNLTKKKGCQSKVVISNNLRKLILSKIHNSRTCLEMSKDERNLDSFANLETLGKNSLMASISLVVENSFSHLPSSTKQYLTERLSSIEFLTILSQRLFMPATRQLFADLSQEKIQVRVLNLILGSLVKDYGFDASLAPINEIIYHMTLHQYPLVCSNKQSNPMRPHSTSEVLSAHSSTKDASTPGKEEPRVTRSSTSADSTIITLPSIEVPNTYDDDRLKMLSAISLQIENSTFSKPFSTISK
Protocol: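 Universal 'all 10-mer' protein binding microarrays (Agilent AMADID 015681) probed with GST-tagged S. cerevisiae TFs (full-length or DBD) made by in vitro transcription/translation (PURExpress), about 100-200 nM. Bound TF was detected with fluorescent anti-GST. Each ungapped 8-mer (which stands for itself and its reverse complement) is scored by the PBM enrichment score (E-score), a modified Wilcoxon-Mann-Whitney statistic from -0.5 to +0.5, computed with the Universal PBM Analysis Suite. Scale: above 0.35 generally sequence-specific binding.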

Sequence | PBM E-score
AGATCTTA | 0.137
GTTACTCA | 0.366
CTTGCGCA | 0.0552
CGTGATGC | -0.146
CGGGATGC | -0.242
CCGACGGC | -0.262
CAGTCCCG | 0.0449
CGTGTCAA | -0.129
GCGATTAA | 0.318
AGTAGCTG | 0.0121
AACTATAT | 0.0502
GAGGCGTA | -0.151
CGTGCTAG | -0.2
ATCATCTG | 0.177
AAGATTTC | 0.0103
ACCATTTG | -0.0247
TCAGACCA | 0.0958
AGCTTGAA | 0.018
GAACTAAA | 0.104
CCTTATGA | 0.0853
CCTTTCAG | -0.195
CAAGTTAC | 0.0259
GGAGCGCA | -0.294
ATTTTACC | 0.11
GTTTGGAA | 0.0298

Sequence | PBM E-score
CGCTTCCA | -0.24
ATAGGCGG | -0.0798
CGCGACAC | -0.0809
GGACAGAC | 0.0337
GAAGGATC | -0.0298
ACCACGTA | -0.125
AGTGCGTA | -0.144
CGAGGAAG | -0.105
ACTTCTCA | 0.141
GACAGTGC | -0.142
CGTGAGCA | 0.00099
CAATACCG | -0.235
AGCATGGG | -0.137
GAATGAGA | 0.0143
AATGTGCA | -0.0487
GGAGTGCA | -0.0273
AAGCAAGC | -0.194
GTAAATAC | -0.0376
AGTGAGCG | 0.00506
AAGTTTCC | -0.17
TTGCGAAA | -0.085
GAAAAGTA | -0.0395
AGAGCTAG | -0.238
CTAGAGGA | -0.0154
GTAGTCAC | 0.479

Sequence | PBM E-score
AAGGGGTG | 0.0681
CGCTACTC | 0.0673
ACTTCGAT | -0.0527
AGTGTAGC | -0.0251
GCCTGCAA | -0.234
GATCTGCC | -0.274
AAAGAATC | 0.189
GAGCAGCA | -0.109
ACAGCAAT | 0.00151
CCGTTCCC | -0.177
ATACGATC | -0.0601
CGATGAAC | -0.0561
ACAAGTGG | -0.202
AGGCGGTC | -0.332
CCTCGCGA | -0.0528
ATCCGTAC | 0.185
ACATGCAA | 0.0437
CTTAAACC | -0.0319
GACAATCA | 0.317
CCTGTTTA | -0.215
CACGTGGC | -0.0849
CGAGTAAG | -0.00187
GGCCCACA | -0.0547
GGACCACC | -0.146
AGCTAGTA | -0.0613

Sequence | PBM E-score
CTTCAAAC | -0.0331
GCGATGAA | 0.145
AGCTAGCT | -0.154
AGTATTTA | 0.152
CTGAAACA | 0.0713
ATGGTAGA | -0.0143
GAGGAGGC | -0.181
AACACGGT | 0.00016
AACAAATT | 0.0503
CTTTCTTC | -0.103
CGATGTAG | -0.0652
GGAACATA | -0.0975
CTAACGGA | 0.0623
AGAAATAC | -0.0887
AGGATACG | -0.22
CGAATGAG | 0.0829
ATTTTACG | 0.00819
GGCTAAAA | 0.0687
CCTCTAAC | -0.115
ACTGACAT | 0.0293
ATAGATCC | -0.0966
AGACGAGA | -0.00804
GCCATGTA | -0.13
TAATAACA | -0.126
ACGATCCA | 0.00078

Sequence | PBM E-score
CAGTAATC | 0.219
AGACAAAG | 0.0856
AACTTTAT | -0.0572
CCACTCCG | -0.301
AAGCTACG | -0.169
CTTAGTCA | 0.483
AAGGTTGG | -0.124
GATTGAGA | 0.266
GTATTGGA | -0.109
GCCGAAAC | -0.128
GCATCGCA | -0.454
AATTAGAT | 0.129
AACGATAC | -0.131
GATAGTCC | 0.296
GCAATGCC | -0.31
CCACGTAA | -0.177
GGACAAGA | -0.207
ATATTCAA | 0.128
ACCGGATC | -0.284
GTCCCCCA | -0.0782
CCTAAGAA | -0.0253
TAACCCTA | -0.0391
GCGTAGCA | -0.0584
ACCGCCGT | 0.0283
TAGTTTAA | 0.161

Sequence | PBM E-score
AACTCATT | 0.2
AGTGGCCA | -0.134
CATGCATG | -0.19
AGAATACC | -0.139
AGTACCGG | -0.0513
CTAAGTAG | 0.144
CGAGACTC | 0.369
GAGGTCGC | -0.2
GACCGGGC | -0.232
AATTACCA | -0.0928
GAATCGAC | 0.0312
CTAACCTA | -0.0376
GAGACTGA | 0.28
GCCCATAA | -0.159
CGCTTACA | 0.0298
CTGTAGCC | -0.0763
TGTAGCAA | -0.0247
GCTCACCA | -0.0476
ATTATGTC | 0.114
AAGCTTCC | -0.281
GGGCAGGA | -0.108
CTTGGGCA | -0.235
GCTCCCCA | -0.411
ATAGATTC | 0.0929
AACGATTA | 0.0935

Sequence | PBM E-score
ATCGGCGA | -0.108
ATACGTAT | 0.0144
CAACATGG | -0.127
ATGGCACG | -0.358
ACCCTGCA | -0.0587
GGGACGTA | -0.15
AAAAGTGT | -0.119
ATCGAGAC | 0.131
ATCGTGCA | 0.0457
AGCCATAT | 0.233
CTGGACTA | 0.121
CAGGTTCA | -0.102
GCGATCTA | -0.0439
CGTGTGAA | 0.0511
CCAAGGAG | -0.116
GTCTCCAC | 0.00609
CTCTGGTC | -0.00298
AAGGCAGA | -0.133
TCCATAAA | -0.0949
CGATCCTC | -0.047
CCCTATAA | -0.134
ACGTACTC | 0.146
